Measurements: PubChem BioAssay AID1159614 (National Center for Advancing Translational Sciences (NCATS), 2016)
About 65 (0.1%) of roughly 45,000 compounds were called active. Calls follow the shape of the dose curve; as a rule, active = well fitted activation curve with a large enough effect; inconclusive = small, poorly fitted or top-dose-only effect; inactive = no such curve, though single readings can be large or run the other way. Some of the results follow.

target: Galactocerebrosidase (Homo sapiens) (UniProt P54803); test: A Novel Cell-Based Assay to Identify Small Molecules for B -Galactocerebrosidase; conditions: 145M-Twi-hGALC-G270D cells (Twitcher mouse brain line with human GALC G270D), HMU-beta-Gal fluorescence, 48 h; series mostly up to 57.5 µM; activation: at the top concentration; also: 0% is about no effect; nearly all actives have a fitted effect of over 65% in size
Summary of the method: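 Live 145M-Twi cells (Twitcher mouse brain-derived, GALC-null) stably expressing human GALC-G270D, with a wild-type GALC line, were compound-treated. Residual GALC activity was then read as fluorescence from 0.1 mM final HMU-β-gal at pH 5.2; higher signal means activation.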

Chain of UniProt P54803 (P54803 whole entry, looked up): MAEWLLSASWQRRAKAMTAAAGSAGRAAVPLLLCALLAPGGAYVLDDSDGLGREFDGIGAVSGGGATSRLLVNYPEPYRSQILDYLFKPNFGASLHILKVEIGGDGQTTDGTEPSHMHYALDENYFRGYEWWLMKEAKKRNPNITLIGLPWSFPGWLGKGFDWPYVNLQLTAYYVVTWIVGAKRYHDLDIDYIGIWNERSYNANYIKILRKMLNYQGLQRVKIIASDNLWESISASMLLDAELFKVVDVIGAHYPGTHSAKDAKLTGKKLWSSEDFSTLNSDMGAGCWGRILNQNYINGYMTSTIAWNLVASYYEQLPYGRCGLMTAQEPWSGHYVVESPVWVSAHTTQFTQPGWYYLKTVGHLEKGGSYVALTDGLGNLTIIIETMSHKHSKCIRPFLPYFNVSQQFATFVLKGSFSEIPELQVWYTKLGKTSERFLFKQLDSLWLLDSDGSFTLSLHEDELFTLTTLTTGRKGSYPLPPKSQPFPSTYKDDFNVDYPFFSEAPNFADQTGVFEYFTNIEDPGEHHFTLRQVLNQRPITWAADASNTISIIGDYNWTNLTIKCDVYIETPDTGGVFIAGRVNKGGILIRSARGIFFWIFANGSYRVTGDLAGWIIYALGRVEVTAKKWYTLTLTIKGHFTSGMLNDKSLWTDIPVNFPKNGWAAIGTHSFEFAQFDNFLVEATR

activation, inactive:
Clc1cccc(-n2cc(-c3ccccc3)c3c(NC4CCCC4)ncnc32)c1 -13.9%, COc1ccccc1NC(=O)CSc1nc2c(oc3ccccc32)c(=O)n1Cc1ccco1 -17.9%, COc1ccc(NC(=O)C2CCCN(S(=O)(=O)c3cccc4nonc34)C2)cc1Cl (configuration not stated) -11.4%, Cc1ccc(Cl)cc1N(C)C(=O)C1CCCN(c2ncnc3onc(-c4ccc(F)cc4)c23)C1 (configuration not stated) -14.7%, COc1ccc(CNC(=O)CCNS(=O)(=O)c2ccc3c(c2)CCCC(=O)N3)cc1 -20.4%, Cc1ccc(Cn2c(CCNC(=O)C(C)C)nc3ccccc32)cc1 -11.2%, COc1ccc(-c2nc(SCC(=O)NCc3ccccc3Cl)n[nH]2)cc1 5.88%, CCOC(=O)CCc1c(C)nc2c(c(C)nn2-c2ccc(C)cc2)c1C 9.22%, O=C(Cn1nc(-c2ccc(Cl)cc2)ccc1=O)NCCc1ccccc1 -5.92%, O=C(C1CCC1)N1CCc2cc(S(=O)(=O)NCCc3ccccc3)ccc21 0.548%, O=c1[nH]c(SCc2c(F)cccc2Cl)nc2c1CCCC2 3.18%, COc1ccc(-c2nc(CSCC(=O)N3CCN(c4ccccc4)CC3)c(C)o2)cc1 -5.62%, CC(=O)c1cccc(NS(=O)(=O)c2cccc(S(=O)(=O)c3ccc(Br)cc3)c2)c1 -7.67%, COc1ccc(N2CCN(C(=O)CSCc3ccc(C)cc3)CC2)cc1 -21.4%, Cc1ccc2nc(COc3cccc(NC(=O)COc4ccc(F)cc4)c3)cc(=O)n2c1 -19%, Cc1ccc(NC(=O)CCS(=O)(=O)c2ccc3c(c2)oc(=O)n3C)c(Br)c1 -12.7%, Cc1cc(C)cc(-n2c(SCC(=O)NC3CCCCC3)nc3c([nH]c4ccccc43)c2=O)c1 -11.7%, CCOc1cc(S(=O)(=O)NCCc2c(C)[nH]c3ccc(C)cc23)ccc1Br -11.6%, COc1ccc(NC(=O)c2cc3c(C)nn(-c4ccccc4)c3s2)c(OC)c1 -3.68%, Cc1c(Cl)cccc1Nc1nn2c(=O)c3ccc(C(=O)N(C)Cc4ccccc4)cc3nc2s1 -23%, O=C(Nc1cccc(-c2nc3ccccc3o2)c1)c1cccc2c(Cl)cccc12 -1.17%, COCCNC(=O)c1[nH]c2cc(C)ccc2c1Sc1ccc(Cl)cc1 -23.7%, Cc1ccccc1NC(=O)c1ccc(N(Cc2ccccc2)S(C)(=O)=O)cc1 2.85%, COc1ccc(CNC(=O)c2cnc3ccc(C)cn3c2=O)cc1 -16.3%, CCc1nn(CC(=O)NC(C)CC)c(=O)c2cc3occc3n12 (configuration not stated) -12.6%, CC(C)(C)OC(=O)N1CCC(c2c(C(=O)Nc3ccc4c(c3)OCO4)cnn2-c2ccccc2)CC1 -3.46%, O=C(COc1ccccc1)OCc1cc(=O)n2nc(-c3cccs3)sc2n1 -9.22%, CC(C)OC(=O)OCOP(=O)(CO[C@H](C)Cn1cnc2c(N)ncnc21)OCOC(=O)OC(C)C -2.92%, Cc1c(Cl)cccc1NC(=O)c1cc2nc(-c3ccc4c(c3)OCO4)cc(C(F)(F)F)n2n1 -11.2%, COC(=O)c1ccccc1NC(=O)CCS(=O)(=O)c1nc(-c2ccc3c(c2)OCO3)cc(C(F)(F)F)n1 -8.69%, COC(=O)c1c(-c2cccs2)csc1NC(=O)c1ccc(C(C)C)cc1 -22.1%, CCOCCCn1c(=N)c(S(=O)(=O)c2ccc(Cl)cc2)cc2c(=O)n3cccc(C)c3nc21 -10.8%, COc1ccccc1CNc1ncnc2c1nnn2C -12.5%, O=C(NCc1ccc2c(c1)CCN2C(=O)c1ccncc1)c1ccccc1F -20.6%, O=C(NCc1ccc(F)cc1)c1ccc2oc(=O)n(Cc3ccccc3)c2c1 -12.1%, COc1ccccc1NC(=O)C(=O)NCC(c1cccnc1)N1CCc2ccccc2C1 (configuration not stated) -16.1%, COc1cccc(CNC(=O)Cn2c(=O)oc3cc(S(=O)(=O)N4CCCCCC4)ccc32)c1 -15.6%, CN1CC(=O)N(CC(=O)Nc2ccc(OC(F)(F)F)cc2)c2ccccc2C1=O 5.33%, CCOc1ccc(-c2cc(C(=O)NCCc3ccc(OC)c(OC)c3)[nH]n2)cc1 -11.4%, CCc1ccc(NC(=O)Cn2c(=O)c3cc(Cl)ccc3n3nncc23)cc1 -7.67%, C=Cc1ccc(Cn2c(SCC(=O)N3CCN(c4ccc(F)cc4)CC3)nc3ccccc32)cc1 -8.47%, COC(=O)c1cccc(CN2C(=O)SC(Nc3ccc(C)cc3)C2=O)c1 (configuration not stated) -11.4%, Cc1ccccc1CNC(=O)C(=O)NCC(c1cccs1)S(=O)(=O)c1cccs1 (configuration not stated) 9.1%, O=c1c2oc3ccccc3c2n(Cc2cccc(F)c2)c(=O)n1Cc1ccc2c(c1)OCO2 -12.4%, CC(=O)Nc1nonc1-c1nnc(SCc2ccccc2)n1C -5.13%, COc1ccc(-n2nc(C(=O)Nc3cc(C)ccn3)c3c4ccccc4n(C)c3c2=O)cc1Cl -5.31%, CCC(=O)Nc1cccc(-c2nc3cc(C)ccc3o2)c1 -21.3%, CC(=O)c1ccc(N2CCN(c3ccc4cc(S(=O)(=O)N5CCC(C)CC5)ccc4n3)CC2)cc1 -10.3%, Cc1ccc(S(=O)(=O)c2cn(CC(=O)Nc3ccc(Cl)cc3)c3ccc(F)cc3c2=O)cc1C -10.2%, C[C@@]12CCC[C@H]1[C@@H]1CC[C@H]3C[C@@H](O)CC[C@]3(C)[C@H]1CC2 -16.9%, CCOC(=O)c1ccc(NC(=O)CCc2nc3cccnc3n2Cc2cccs2)cc1 -12%, Cc1cccc(NC(=O)/C(C#N)=C/c2ccc(C)o2)c1 -14%, CCOC(=O)c1c(NC(=O)c2cc(CC)on2)sc(C(C)=O)c1C -21%, COc1cc(C2CC(=O)Nc3c2c(=O)n(C)c2ncnn32)cc(OC)c1OC (configuration not stated) -5.44%, CSc1ccc(CCNC(=O)c2c(C)oc3ncn(C)c(=O)c23)cc1 -10.9%, COc1ccc(N2CCN(C(=O)C3CCN(c4nc5ccc(C)cc5[nH]4)CC3)CC2)cc1 -5.56%, Cc1cccc(Cn2c(Cc3ccccc3)nc3ccccc32)c1 -10.8%, O=C(CN1c2ccccc2S(=O)(=O)c2ccccc21)Nc1cccc(C(F)(F)F)c1 -17.4%, COc1ccc(CCN2CCC(CNC(=O)c3cnn(-c4cccc(Cl)c4)c3C3CCN(C(=O)OC(C)(C)C)CC3)CC2)cc1 -7.86%, CC(=O)Nc1cccc(C(=O)NCc2ccc3c(c2)CCN3C(=O)c2ccc(F)cc2)c1 -8.7%, O=C(Nc1ccc(C(F)(F)F)cc1)C(Cc1ccccc1)n1cccc1 (configuration not stated) -0.235%, O=C(NCCCN1CCN(c2ccccc2F)CC1)c1ccc2nc(N3CCCCC3)sc2c1 -11.9%, CC(=O)c1ccc(NC(=O)COCc2cc(-c3ccc(F)cc3)on2)cc1 -13.4%, COc1ccccc1NC(=O)C1=C(C)Nc2nc(SCc3ccccc3)nn2C1c1ccncc1 (configuration not stated) -13.5%, Cc1cc(NC(=O)c2ccc(NC(=O)CCS(=O)(=O)c3cccs3)cc2)ccc1Br -26.2%, CCN(C(=O)C1CCCN(c2ncnc3c2nc2n3CCCCC2)C1)c1cccc(Cl)c1 (configuration not stated) -17.6%, Cc1cc2c(cc3c(SCc4ccccc4Cl)nnc(C)n32)o1 -5.98%, COc1cccc(NS(=O)(=O)c2ccc3[nH]cc(C(=O)N4CCCC4)c(=O)c3c2)c1 -1.86%, Cc1c(CCNC(=O)C(C)(C)C)sc2nc(-c3ccc(F)cc3)nn12 1.81%, Cc1cc(Nc2cc(F)ccc2C)nc(-n2nc(C)cc2C)n1 -7.27%, COc1cc(NC(=O)Cn2nc3c(cc2=O)CC(C)CC3)cc(OC)c1OC (configuration not stated) -15.6%, COc1cc(OC)c(N(C)C(=O)c2sc3nc4n(c(=O)c3c2C)CCCCC4)cc1Cl -14.4%, COc1ccc2[nH]cc(CCN=C(NC(=O)c3ccccc3C)Nc3nc(C)cc(C)n3)c2c1 -6.47%, COc1ccc(OCC(=O)Nc2ccc(-c3nc4cc(C)c(C)cc4o3)cc2)cc1 -20.2%, Cc1c(C(=O)N2CCC(C)CC2)c(S(=O)(=O)Nc2ccc(OC(F)(F)F)cc2)c(C)n1C -7%, CC(C)N(Cc1ccccc1)C(=O)CN1C(=O)CSc2ccc(S(=O)(=O)N3CCCC3)cc21 -25.6%, CN(C)S(=O)(=O)N(CC(=O)NCCSc1ccccc1)c1ccccc1 -12.1%, CCn1cc(C(=O)N2CCN(c3ccc(OC)cc3)CC2)c(=O)c2cc(S(=O)(=O)N3CCOCC3)ccc21 -16.8%, N#Cc1c[nH]n2c(NC3CCCC3)c(-c3ccc(Cl)cc3)nc12 -12.2%, CCN(CC)CCNC(C(=O)OCCC(C)C)c1ccccc1 (configuration not stated) -13.1%, O=C(Cn1ncc2c3ccccc3n(Cc3ccc(F)cc3)c2c1=O)NCCCN1CCCCC1 -11.1%, O=C(CCS(=O)(=O)c1cccc2nonc12)Nc1ccc(Br)cc1 -8.58%, Cc1ccc(CCNC(=O)c2c(C)nn(-c3ccc(F)cc3)c2-n2cccc2)cc1 -36%, CCOc1ccccc1NC(=O)N1CCC2(CC1)Oc1ccccc1C(=O)N2Cc1ccccc1F -15.8%, CC1=C(C(=O)Nc2ccccc2)C(c2ccc(O)cc2)n2nc(SCc3ccccc3)nc2N1 (configuration not stated) -12.9%, CCc1ccc(NC(=O)C(=O)NCCc2sc3nc(-c4ccc(OC)cc4)nn3c2C)cc1 -1.55%, Cc1ccc(CNc2nc3ccc(C)cc3n3nnnc23)cc1 -8.36%, COc1ccc(Cl)cc1NC(=O)CCn1c(=O)oc2ccccc21 -0.533%, O=c1[nH]c(SCc2ccc([N+](=O)[O-])cc2)nc2c1CCCC2 -13.4%, Cc1ccccc1NC(=O)CSc1ccc(-c2cccs2)nn1 -6.55%, Cc1ccc(NC(=O)c2c(NC(=O)C(F)(F)F)sc3c2CCCCC3)cc1 -28.5%, O=C(Cn1c(-c2cccs2)cc2ccccc21)NCCCN1CCN(c2ccccc2F)CC1 -14.5%, O=C(CSc1nccn1Cc1ccccc1)Nc1ccc2c(c1)OCCO2 -10.8%, O=C(CSc1nnc(COc2ccccc2)o1)Nc1cc(C(F)(F)F)ccc1Cl -12.8%, Cc1ccc(CNC(=O)Cn2cccc2C(=O)c2ccccc2C)cc1 3.48%, CCN(C(=O)c1cc2c(s1)-c1ccccc1OC2)c1cccc(C(F)(F)F)c1 -5.4%

Potency, inactive:
Cn1cnc([N+](=O)[O-])c1Sc1ncnc2nc[nH]c12
